# In the supplement of paper PMC8728848:
# The other results are listed elsewhere or left out.
# How the values were obtained:
# Assay in all cases: glycan array binding signal (z-score within array); higher = stronger binding
# Settings in all cases: glycan notation: IUPAC condensed, linker removed
# [1] = target: Neu5Ac(a2-3)Gal(b1-3)GalNAc(b1-3)Gal(a1-4)Gal(b1-4)Glc
# Outline: (§1)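 From the Consortium for Functional Glycomics database, 3228 arrays were curated, keeping only those whose protein sequence was available. Binding is given as a within-array Z-score averaged across arrays sharing a protein sequence and across linkers. Negative Z-scores can be read as non-binding.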
# [2] = target: Neu5Ac(a2-3)Gal(b1-3)GalNAc(b1-4)[Neu5Ac(a2-3)]Gal(b1-4)Glc
# Outline: as §1
# [3] = target: Neu5Ac(a2-3)Gal(b1-3)GalNAc6S
# Outline: as §1
# [4] = target: Neu5Ac(a2-3)Gal(b1-3)GlcNAc
# Outline: as §1
# [5] = target: Neu5Ac(a2-3)Gal(b1-3)GlcNAc(b1-3)Gal(b1-4)GlcNAc
# Outline: as §1
# [6] = target: Neu5Ac(a2-3)Gal(b1-3)GlcNAc6S
# Outline: as §1
# [7] = target: Neu5Ac(a2-3)Gal(b1-3)[Fuc(a1-4)]GlcNAc
# Outline: as §1
# [8] = target: Neu5Ac(a2-3)Gal(b1-3)[Fuc(a1-4)]GlcNAc(b1-3)Gal(b1-4)[Fuc(a1-3)]GlcNAc
# Outline: as §1
# [9] = target: Neu5Ac(a2-3)Gal(b1-3)[Neu5Ac(a2-3)Gal(b1-4)]GlcNAc
# Outline: as §1
# [10] = target: Neu5Ac(a2-3)Gal(b1-3)[Neu5Ac(a2-6)]GalNAc
# Outline: as §1
# [11] = target: Neu5Ac(a2-3)Gal(b1-4)Glc
# Outline: as §1
# [12] = target: Neu5Ac(a2-3)Gal(b1-4)GlcNAc
# Outline: as §1
# [13] = target: Neu5Ac(a2-3)Gal(b1-4)GlcNAc(b1-3)Gal(b1-4)GlcNAc
# Outline: as §1
# [14] = target: Neu5Ac(a2-3)Gal(b1-4)GlcNAc(b1-3)Gal(b1-4)GlcNAc(b1-3)Gal(b1-4)GlcNAc
# Outline: as §1
# [15] = target: Neu5Ac(a2-3)Gal(b1-4)GlcNAc(b1-3)Gal(b1-4)[Fuc(a1-3)]GlcNAc
# Outline: as §1
# [16] = target: Neu5Ac(a2-3)Gal(b1-4)GlcNAc6S
# Outline: as §1
# [17] = target: Neu5Ac(a2-3)Gal(b1-4)[Fuc(a1-3)]GlcNAc
# Outline: as §1
# [18] = target: Neu5Ac(a2-3)Gal(b1-4)[Fuc(a1-3)]GlcNAc(b1-3)Gal
# Outline: as §1
# [19] = target: Neu5Ac(a2-3)Gal(b1-4)[Fuc(a1-3)]GlcNAc(b1-3)Gal(b1-4)GlcNAc
# Outline: as §1
# [20] = target: Neu5Ac(a2-3)Gal(b1-4)[Fuc(a1-3)]GlcNAc(b1-3)Gal(b1-4)[Fuc(a1-3)]GlcNAc(b1-3)Gal(b1-4)[Fuc(a1-3)]GlcNAc
# Outline: as §1
# [21] = target: Neu5Ac(a2-3)Gal(b1-4)[Fuc(a1-3)]GlcNAc6S
# Outline: as §1
# [22] = target: Neu5Ac(a2-3)Gal6S(b1-4)GlcNAc
# Outline: as §1
# [23] = target: Neu5Ac(a2-3)Gal6S(b1-4)[Fuc(a1-3)]GlcNAc
# Outline: as §1
# [24] = target: Neu5Ac(a2-3)GalNAc
# Outline: as §1
# [25] = target: Neu5Ac(a2-3)GalNAc(b1-4)GlcNAc
# Outline: as §1
# [26] = target: Neu5Ac(a2-3)[GalNAc(b1-4)]Gal(b1-4)Glc
# Outline: as §1
# [27] = target: Neu5Ac(a2-3)[GalNAc(b1-4)]Gal(b1-4)GlcNAc
# Outline: as §1
# [28] = target: Neu5Ac(a2-3)[Neu5Ac(a2-6)]GalNAc
# Outline: as §1
# [29] = target: Neu5Ac(a2-6)Gal(b1-4)GlcNAc
# Outline: as §1
# [30] = target: Neu5Ac(a2-6)Gal(b1-4)GlcNAc(b1-2)Man(a1-3)[Neu5Ac(a2-6)Gal(b1-4)GlcNAc(b1-2)Man(a1-6)]Man(b1-4)GlcNAc(b1-4)GlcNAc
# Outline: as §1
# [31] = target: Neu5Ac(a2-6)Gal(b1-4)GlcNAc(b1-3)Gal(b1-4)GlcNAc
# Outline: as §1
# [32] = target: Neu5Ac(a2-6)Gal(b1-4)GlcNAc(b1-3)Gal(b1-4)[Fuc(a1-3)]GlcNAc(b1-3)Gal(b1-4)[Fuc(a1-3)]GlcNAc
# Outline: as §1
# [33] = target: Neu5Ac(a2-6)Gal(b1-4)GlcNAc6S
# Outline: as §1
# [34] = target: Neu5Ac(a2-6)GalNAc
# Outline: as §1
# [35] = target: Neu5Ac(a2-6)GalNAc(b1-4)GlcNAc
# Outline: as §1
# [36] = target: Neu5Ac(a2-8)Neu5Ac
# Outline: as §1
# [37] = target: Neu5Ac(a2-8)Neu5Ac(a2-3)Gal(b1-4)Glc
# Outline: as §1
# [38] = target: Neu5Ac(a2-8)Neu5Ac(a2-3)[GalNAc(b1-4)]Gal(b1-4)Glc
# Outline: as §1
# [39] = target: Neu5Ac(a2-8)Neu5Ac(a2-8)Neu5Ac
# Outline: as §1
# [40] = target: Neu5Ac(a2-8)Neu5Ac(a2-8)Neu5Ac(a2-3)Gal(b1-4)Glc
# Outline: as §1
# [41] = target: Neu5Ac(a2-8)Neu5Ac(a2-8)Neu5Ac(a2-3)[GalNAc(b1-4)]Gal(b1-4)Glc
# Outline: as §1
# [42] = target: Neu5Ac(a2-8)Neu5Ac(a2-8)Neu5Ac(a2-8)Neu5Ac(a2-3)[GalNAc(b1-4)]Gal(b1-4)Glc
# Outline: as §1
# [43] = target: Neu5Ac9Ac(a2-6)Gal(b1-4)GlcNAc
# Outline: as §1
# [44] = target: Neu5Gc(a2-3)Gal(b1-3)GlcNAc
# Outline: as §1
# [45] = target: Neu5Gc(a2-3)Gal(b1-3)[Fuc(a1-4)]GlcNAc
# Outline: as §1
# [46] = target: Neu5Gc(a2-3)Gal(b1-4)Glc
# Outline: as §1
# [47] = target: Neu5Gc(a2-3)Gal(b1-4)GlcNAc
# Outline: as §1
# [48] = target: Neu5Gc(a2-3)Gal(b1-4)[Fuc(a1-4)]GlcNAc
# Outline: as §1
# [49] = target: Neu5Gc(a2-6)Gal(b1-4)GlcNAc
# Outline: as §1
# [50] = target: Neu5Gc(a2-6)GalNAc
# Outline: as §1
binder,measurement,setting,value
"HMGB1 (Rattus norvegicus), P63159 (protein) MGKGDPKKPRGKMSSYAFFVQTCREEHKKKHPDASVNFSEFSKKCSERWKTMSAKEKGKFEDMAKADKARYEREMKTYIPPKGETKKKFKDPNAPKRPPSAFFLFCSEYRPKIKGEHPGLSIGDVAKKLGEMWNNTAADDKQPYEKKAAKLKEKYEKDIAAYRAKGKPDAAKKGVVKAEKSKKKKEEEDDEEDEEDEEEEEEEEDEDEEEDDDDE",glycan array binding signal (z-score),[1],-0.21
same,glycan array binding signal (z-score),[2],0.326
same,glycan array binding signal (z-score),[3],0.91
same,glycan array binding signal (z-score),[4],1.87
same,glycan array binding signal (z-score),[5],-0.279
same,glycan array binding signal (z-score),[6],-0.541
same,glycan array binding signal (z-score),[7],-0.164
same,glycan array binding signal (z-score),[8],-0.002
same,glycan array binding signal (z-score),[9],0.147
same,glycan array binding signal (z-score),[10],0.013
same,glycan array binding signal (z-score),[11],-0.38
same,glycan array binding signal (z-score),[12],1
same,glycan array binding signal (z-score),[13],-0.57
same,glycan array binding signal (z-score),[14],-0.169
same,glycan array binding signal (z-score),[15],2.06
same,glycan array binding signal (z-score),[16],-0.935
same,glycan array binding signal (z-score),[17],-0.141
same,glycan array binding signal (z-score),[18],-0.541
same,glycan array binding signal (z-score),[19],-0.249
same,glycan array binding signal (z-score),[20],-0.616
same,glycan array binding signal (z-score),[21],-0.331
same,glycan array binding signal (z-score),[22],0.304
same,glycan array binding signal (z-score),[23],-0.364
same,glycan array binding signal (z-score),[24],0.199
same,glycan array binding signal (z-score),[25],-0.409
same,glycan array binding signal (z-score),[26],-0.521
same,glycan array binding signal (z-score),[27],-0.461
same,glycan array binding signal (z-score),[28],-0.263
same,glycan array binding signal (z-score),[29],0.763
same,glycan array binding signal (z-score),[30],-0.217
same,glycan array binding signal (z-score),[31],-0.446
same,glycan array binding signal (z-score),[32],0.178
same,glycan array binding signal (z-score),[33],-0.168
same,glycan array binding signal (z-score),[34],-0.046
same,glycan array binding signal (z-score),[35],2.1
same,glycan array binding signal (z-score),[36],-0.048
same,glycan array binding signal (z-score),[37],-0.521
same,glycan array binding signal (z-score),[38],-0.222
same,glycan array binding signal (z-score),[39],-0.597
same,glycan array binding signal (z-score),[40],-0.669
same,glycan array binding signal (z-score),[41],-0.394
same,glycan array binding signal (z-score),[42],-0.478
same,glycan array binding signal (z-score),[43],0.467
same,glycan array binding signal (z-score),[44],-0.317
same,glycan array binding signal (z-score),[45],2.69
same,glycan array binding signal (z-score),[46],-0.574
same,glycan array binding signal (z-score),[47],0.031
same,glycan array binding signal (z-score),[48],1.13
same,glycan array binding signal (z-score),[49],-0.02
same,glycan array binding signal (z-score),[50],-0.619
